Article PMC4336329 (PLoS ONE, 2015)
The campaign covered roughly 310,000 compounds. About 2,200 (0.71%) showed an effect of 50% or more. Effects have a minus sign here. This is one part of the list.

What follows are compounds tested against human ether-à-go-go-related gene (hERG) potassium channel (human, UniProt Q12809) (assay: primary screen, population patch clamp on CHO cells stably expressing hERG).
human ether-à-go-go-related gene (hERG) potassium channel, sequence (Q12809 whole entry, looked up): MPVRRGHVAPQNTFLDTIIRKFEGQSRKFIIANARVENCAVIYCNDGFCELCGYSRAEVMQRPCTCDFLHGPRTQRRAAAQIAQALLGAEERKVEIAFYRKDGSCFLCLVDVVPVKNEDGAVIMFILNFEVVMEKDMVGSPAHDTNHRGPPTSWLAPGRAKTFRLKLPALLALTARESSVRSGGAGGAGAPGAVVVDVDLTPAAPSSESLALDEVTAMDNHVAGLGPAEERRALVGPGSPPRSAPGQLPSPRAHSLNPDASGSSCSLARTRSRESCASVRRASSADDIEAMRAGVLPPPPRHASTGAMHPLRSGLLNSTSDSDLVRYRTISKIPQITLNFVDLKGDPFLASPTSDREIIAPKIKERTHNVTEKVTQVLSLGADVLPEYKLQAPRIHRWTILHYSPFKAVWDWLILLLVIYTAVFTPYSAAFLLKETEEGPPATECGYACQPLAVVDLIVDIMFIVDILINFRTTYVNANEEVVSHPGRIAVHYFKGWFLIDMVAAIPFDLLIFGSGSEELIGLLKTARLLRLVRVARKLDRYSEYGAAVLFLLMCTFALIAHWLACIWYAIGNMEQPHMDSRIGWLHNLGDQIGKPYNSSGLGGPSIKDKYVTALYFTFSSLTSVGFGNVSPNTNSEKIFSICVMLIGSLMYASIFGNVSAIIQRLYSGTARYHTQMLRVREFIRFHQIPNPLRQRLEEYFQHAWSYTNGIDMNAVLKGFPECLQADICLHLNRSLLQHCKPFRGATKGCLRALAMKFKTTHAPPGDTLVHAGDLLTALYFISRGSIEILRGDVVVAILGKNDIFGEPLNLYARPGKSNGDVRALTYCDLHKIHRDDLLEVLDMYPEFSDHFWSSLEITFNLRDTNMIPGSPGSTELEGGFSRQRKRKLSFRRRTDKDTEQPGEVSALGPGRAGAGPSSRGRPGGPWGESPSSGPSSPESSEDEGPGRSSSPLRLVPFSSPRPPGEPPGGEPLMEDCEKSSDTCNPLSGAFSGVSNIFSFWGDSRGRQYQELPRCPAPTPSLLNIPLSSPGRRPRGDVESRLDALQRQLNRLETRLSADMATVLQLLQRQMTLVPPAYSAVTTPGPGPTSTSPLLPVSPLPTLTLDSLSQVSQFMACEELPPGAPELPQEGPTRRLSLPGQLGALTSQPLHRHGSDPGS

Compound | hERG current change (%, negative = inhibition) at 1uM
COCCCN1C(=O)c2ccc(C(=O)Nc3ccccc3OC)cc2C1=O | 2.45%
Cc1c(NC(=O)C(C)SC(=S)N2CCCC2)c(=O)n(-c2ccccc2)n1C (stereo not shown) | 8.1%
COc1ccc(Nc2ncc(C#N)c(N)n2)c(OC)c1 | 4.85%
O.O=c1ccc2cc(O[C@@H]3O[C@@H](CO)[C@H](O)[C@@H](O)[C@@H]3O)c(O)cc2o1 | 10.5%
CCOC(=O)c1[nH]cnc1C(=O)Nc1ccccc1 | 5.4%
O=C(COc1ccccc1)NCC(=O)N/N=C/c1ccc(Br)cc1 | -18.1%
COc1cccc(-c2nn(Cc3ccccc3)cc2CO)c1 | 15%
O=C(NNc1nc2ccc(Cl)cc2s1)c1cc(-c2cccs2)nc2ccccc12 | 4.23%
CCCc1nnc(SCC(=O)N2C(C)CCCC2C)n1CCCOC (stereo not shown) | 0.38%
COC(=O)c1ccc(S(=O)(=O)NCc2ccco2)n1C | 9.08%
CCN(CCCCN1C(=O)c2ccccc2C1=O)c1ccc2c(c1)C(=O)N(C)C2=O | 5.82%
COc1ccc(S(=O)(=O)N2CCCCCC2)cc1C(=O)N(C)Cc1ccc(Cl)cc1Cl | -2.04%
COc1cc(/C=C/C(=O)O)cc(Br)c1O | 8.32%
COc1cccc(-c2[nH]nc3c2C(c2ccc(C)o2)C(C#N)=C(N)O3)c1 (stereo not shown) | -4%
Cc1cc(Nc2ccc(Cl)cc2)nc(NCc2ccccc2)n1 | 9.08%
O=C(CS(=O)(=O)c1ccc(Br)cc1)N1CCOCC1 | 10%
COC(=O)c1ccc(NC(=S)NC2CC(C)(C)NC(C)(C)C2)cc1 | 9.48%
O=C(NC1CCCc2ccccc21)c1ccccn1 (stereo not shown) | 11.7%
O=C(Nc1cccc(C(=O)N2CCOCC2)c1)NC1CCCCC1 | 0.506%
COc1cc(OC)c(NC(=O)c2cncn2-c2ccc(F)cc2)cc1Cl | 5.23%
COc1ccccc1N(CC(=O)N/N=C(\C)c1ccc(F)cc1)S(=O)(=O)c1ccccc1 | 28.3%
O=C(c1ccc(Cl)c(S(=O)(=O)N2CCCCC2)c1)N1CCCC1 | 12.1%
Cc1c(NC(=O)NC2CCCCC2)cccc1[N+](=O)[O-] | 17.2%

Compound | hERG current change (%, negative = inhibition) at 1uM
CCSc1nsc(NC(=O)Nc2ccc(F)cc2F)n1 | 18.3%
O=C(CCl)N(CCc1ccccc1)CCc1ccccc1 | 7.11%
CC(C)c1ccc(/C=c2\sc3nc(-c4ccncc4)nn3c2=O)cc1 | 5.57%
CCc1nc2sccc2c(=O)n1N | 24.9%
COc1ccccc1C/C(N)=N/OC(=O)COc1cccc(C)c1 | 6.86%
Cc1nn(Cc2ccc(F)cc2)c(C)c1NC(=O)c1cc(-c2ccc3c(c2)OCO3)on1 | -2.14%
CCOC(=O)c1ccc(N2CCOCC2)c(NC(=O)COCC(=O)O)c1 | 10.9%
Cc1ccc(-c2nc(-c3ccncc3)no2)c(C)c1 | 14.1%
O=C(Nc1ccccc1-c1nnn(CC(=O)N2CCOCC2)n1)c1ccc(F)cc1 | 11.6%
OC1(CNCc2cn[nH]c2-c2cc3ccccc3o2)CCCCC1 | 5.16%
CCc1ccc(CNCc2ccc(F)cc2)cc1 | 1.27%
CC(=O)Nc1ccc(C(=O)OCC(=O)c2ccc(F)cc2)cc1 | 11.3%
Cc1ccc(-n2nc3c(c2NC(=O)c2cccs2)CS(=O)(=O)C3)cc1 | 6%
CN(C)S(=O)(=O)c1ccc(NC(=O)c2ccccn2)cc1 | 16.1%
Cc1ccccc1CSc1nnc([C@@H]2CCCN2)o1.Cl | 10.5%
COc1ccc(OC(=O)c2cn(C)nc2C(F)(F)F)cc1 | 11.3%
Cc1ccc2cc(C#N)c(NCCCNC(=O)C3CCCO3)nc2c1 (stereo not shown) | 1.42%
CC1CCN(C2CCN(S(=O)(=O)c3ccc(F)cc3)CC2)CC1.O=C(O)C(=O)O | -16.2%
CCNCc1ccccc1OCc1ccccc1.Cl | 9.31%
O=C(O)C(NS(=O)(=O)c1cccc2nsnc12)c1ccccc1 (stereo not shown) | 13.7%
CC(=O)OC(C)(C)C#CCN1CCCC1 | 10.4%
COc1cccc2oc3ccc(C#CC4(N)CCCCC4)cc3c(=O)c12 | -1.98%
Cc1ccc(/C=N/NC(=S)NCCc2ccccc2)s1 | 16.8%

Compound | hERG current change (%, negative = inhibition) at 1uM
Cn1cnnc1SCC(=O)Nc1cccc(S(=O)(=O)N2CCCCCC2)c1 | 4.35%
COc1ccc(C(CNC(=O)COc2ccccc2)N2CCOCC2)cc1 (stereo not shown) | 11.6%
Cc1nc2cc(NC(=O)N3CCCC3)ccc2n1C | 8.27%
CC(Oc1cccc2ccccc12)C(=O)N/N=C/c1cccnc1 (stereo not shown) | 15.3%
O=C(/C=N/O)NCCN1CCCCC1 | 13.4%
O=C(Cn1c(CO)nc2ccccc21)Nc1cc(C(F)(F)F)ccc1N1CCOCC1 | 8.51%
CCn1ccnc1CN(C)C(=O)C1CCC(=O)N(Cc2cccc(C(F)(F)F)c2)C1 (stereo not shown) | 1.11%
C=CCNC(=S)NNC(=O)C(CCCC)CC(O)COCC(C)C (stereo not shown) | 5.02%
CNC(=O)CC(C(=O)O)c1ccc(OC(C)C)cc1 (stereo not shown) | 0.895%
O=C(O)CCCCCCCCc1cn(CC2CCCCC2)nn1 | 17%
CN=c1sc(C(=O)Nc2ccccc2)c(C)n1C | 6.87%
CS(=O)(=O)N(CC(=O)NCc1ccccc1)c1ccc(Cl)cc1 | 15.2%
CCOC(=O)[C@H]1[C@H]2COc3ccc(Cl)cc3[C@@H]2N2C(=O)c3cc(Cl)ccc3NC(=O)[C@@]12C | 10%
CCOC(=O)c1nn(-c2ccc(Br)cc2)cc1C(=O)c1cccc2ccccc12 | 11.6%
O=C(C1CCCN(S(=O)(=O)c2cccc3nonc23)C1)N1CCN(c2cccc(Cl)c2)CC1 (stereo not shown) | 11.1%
O=C1NC(=O)C(CCc2ccncc2)(Cc2cccc(Cl)c2Cl)C(=O)N1c1ccc(Br)cc1 (stereo not shown) | 2.57%
COc1ccc(C(=O)OCC(=O)c2ccc(C3CCCCC3)cc2)cc1 | 10.1%
COc1ccc(CCNC(=O)c2ccc(NS(=O)(=O)c3ccc4[nH]c(=O)[nH]c4c3)cc2)cc1OC | 12.7%
CC(=N)c1c(O)c2ccccc2oc1=O | 8.97%
CC(C)c1ccc(CNc2nnnn2C)cc1 | 12.3%
CCn1c(NC(=O)c2ccccc2)nc2ccccc21 | 11.3%
Cc1ccc2c(c1)c(C)c(C)n2CC(O)CN1CCOCC1.Cl (stereo not shown) | 15.4%
COc1ccc(C(=O)NC(=S)NNC(=O)COc2ccccc2)cc1 | 2.85%

Compound | hERG current change (%, negative = inhibition) at 1uM
O=C(CN1C(=O)S/C(=C/c2cc(Br)cs2)C1=O)N1CCOCC1 | -1.05%
Cc1ccc(O)c(C2=Nc3ccccc3N=C(c3cccc([N+](=O)[O-])c3)C2)c1 | 13.8%
Cc1sc2ncnc(N3CCC(C(=O)Nc4nc5ccc(Cl)cc5s4)CC3)c2c1C | 12.6%
COC(=O)CSc1nc(-c2ccccc2)nc2ccc(F)cc12 | -2.67%
CCN1CCN(C(=O)C2CCCN(c3ncnc4c3nc3n4CCCCC3)C2)CC1 (stereo not shown) | 17.4%
Cc1nnc(SCc2c(Cl)cccc2[N+](=O)[O-])s1 | 3.96%
O=C(CCc1nc2ccccc2s1)OCC(=O)c1ccc[nH]1 | 12.9%
CC(C)COC(=O)NCCOC(=O)Nc1cccc(Cl)c1 | 11.6%
Cc1nc2ccc(NC(=O)c3nn(C(C)C)c(=O)c4ccccc34)cc2s1 | 20.2%
CN1CCN(C(=O)CCn2nc(-c3ccccc3)c3ccccc3c2=O)CC1 | 7.83%
O=C1CC(c2ccccc2Cl)CC(O)=C1C=Nc1ccccc1 (stereo not shown) | 15.8%
Cc1noc(C)c1COc1ccccc1C(=O)N(C)CC(=O)Nc1ccc(F)c(F)c1F | 2.63%
CCOc1ccc(NS(=O)(=O)c2ccc(NC(=S)NC(=O)CC(C)C)cc2)cc1 | 11.5%
CN(Cc1nccs1)C(=O)c1ccc(OC2CCN(CCc3ccccc3)CC2)cc1 | -24.7%
Cc1ccc(NC(=O)c2cccc(S(=O)(=O)N(C)C3CCCCC3)c2)nc1 | -4.71%
CCN(CC)S(=O)(=O)c1ccc(OCC(=O)NC(=O)Cc2ccccc2)c([N+](=O)[O-])c1 | 1.75%
CC(=O)C1C(c2cccc(F)c2)c2c(n[nH]c2C)CC1(C)O (stereo not shown) | 14.1%
CCN(C(C)=O)c1nc(CSc2nnc(NC(C)C)s2)cs1 | 0.121%
C[C@@]12C(=O)Nc3cc(Cl)ccc3C(=O)N1[C@H]1c3ccccc3OC[C@@H]1[C@@H]2c1ccccc1 | 19.3%
O=C(O)Cc1ccc(C(=O)c2ccc(Cl)cc2)s1 | 19%
Cc1nn2c3cc(N4CCOCC4)ccc3nc2c2ccccc12 | 16.1%
CCOc1ccc(Br)cc1S(=O)(=O)Nc1ccc(C(=O)OCC(=O)Nc2ccc(C#N)cc2)cc1 | 4.04%
